Source: article PMC5426793
These are yes or no findings as the source states them, for the method shown. In cells and extracts the contact can be indirect. Some results given as binding are weak or reduced against the parent protein; the word gives no strength.

Chains of the proteins cited; added tags and fusions are not shown. Lines headed by an entry give the natural chain unless they say otherwise; changes in a name come on top.
UniProt Q27J81: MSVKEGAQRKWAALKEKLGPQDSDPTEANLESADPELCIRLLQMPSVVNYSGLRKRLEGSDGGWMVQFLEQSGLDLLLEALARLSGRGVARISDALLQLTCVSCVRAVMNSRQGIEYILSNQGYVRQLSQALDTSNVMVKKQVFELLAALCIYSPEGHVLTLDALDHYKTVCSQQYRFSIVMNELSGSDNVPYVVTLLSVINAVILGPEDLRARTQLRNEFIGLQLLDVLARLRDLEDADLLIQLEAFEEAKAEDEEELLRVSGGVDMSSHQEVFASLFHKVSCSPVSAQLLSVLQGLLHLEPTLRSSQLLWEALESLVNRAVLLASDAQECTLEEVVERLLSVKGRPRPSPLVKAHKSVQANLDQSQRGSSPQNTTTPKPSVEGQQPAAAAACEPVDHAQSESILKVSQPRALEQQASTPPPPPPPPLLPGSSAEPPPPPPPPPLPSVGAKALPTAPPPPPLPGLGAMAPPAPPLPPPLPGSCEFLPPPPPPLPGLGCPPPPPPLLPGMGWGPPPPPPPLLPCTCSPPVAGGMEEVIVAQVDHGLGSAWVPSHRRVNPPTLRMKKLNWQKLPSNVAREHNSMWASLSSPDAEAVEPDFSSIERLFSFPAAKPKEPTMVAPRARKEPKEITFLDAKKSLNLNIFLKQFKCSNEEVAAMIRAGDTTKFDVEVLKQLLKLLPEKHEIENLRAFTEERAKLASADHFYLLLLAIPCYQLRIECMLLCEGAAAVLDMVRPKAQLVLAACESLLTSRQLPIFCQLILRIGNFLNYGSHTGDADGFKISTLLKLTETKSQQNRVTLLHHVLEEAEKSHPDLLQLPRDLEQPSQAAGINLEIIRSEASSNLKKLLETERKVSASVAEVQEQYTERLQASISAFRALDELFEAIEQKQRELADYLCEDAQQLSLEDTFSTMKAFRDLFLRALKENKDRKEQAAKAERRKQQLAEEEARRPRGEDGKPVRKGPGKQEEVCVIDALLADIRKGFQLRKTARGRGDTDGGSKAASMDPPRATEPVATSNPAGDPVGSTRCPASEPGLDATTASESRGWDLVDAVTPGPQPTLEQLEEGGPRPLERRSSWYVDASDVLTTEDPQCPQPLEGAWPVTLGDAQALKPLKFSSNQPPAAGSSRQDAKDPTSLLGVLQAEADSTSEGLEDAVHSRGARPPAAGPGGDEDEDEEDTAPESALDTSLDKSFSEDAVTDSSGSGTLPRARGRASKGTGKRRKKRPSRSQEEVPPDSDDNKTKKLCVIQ
UniProt O43791: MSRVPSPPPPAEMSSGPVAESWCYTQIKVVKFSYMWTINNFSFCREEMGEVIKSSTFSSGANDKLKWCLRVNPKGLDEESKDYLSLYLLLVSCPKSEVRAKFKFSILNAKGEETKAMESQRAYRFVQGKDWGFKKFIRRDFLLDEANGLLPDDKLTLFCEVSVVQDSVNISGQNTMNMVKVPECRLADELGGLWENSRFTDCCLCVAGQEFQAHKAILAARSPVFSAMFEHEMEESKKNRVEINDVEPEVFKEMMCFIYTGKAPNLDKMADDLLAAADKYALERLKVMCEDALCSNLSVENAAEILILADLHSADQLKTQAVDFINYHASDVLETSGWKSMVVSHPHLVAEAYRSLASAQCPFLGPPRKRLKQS
UniProt P46940: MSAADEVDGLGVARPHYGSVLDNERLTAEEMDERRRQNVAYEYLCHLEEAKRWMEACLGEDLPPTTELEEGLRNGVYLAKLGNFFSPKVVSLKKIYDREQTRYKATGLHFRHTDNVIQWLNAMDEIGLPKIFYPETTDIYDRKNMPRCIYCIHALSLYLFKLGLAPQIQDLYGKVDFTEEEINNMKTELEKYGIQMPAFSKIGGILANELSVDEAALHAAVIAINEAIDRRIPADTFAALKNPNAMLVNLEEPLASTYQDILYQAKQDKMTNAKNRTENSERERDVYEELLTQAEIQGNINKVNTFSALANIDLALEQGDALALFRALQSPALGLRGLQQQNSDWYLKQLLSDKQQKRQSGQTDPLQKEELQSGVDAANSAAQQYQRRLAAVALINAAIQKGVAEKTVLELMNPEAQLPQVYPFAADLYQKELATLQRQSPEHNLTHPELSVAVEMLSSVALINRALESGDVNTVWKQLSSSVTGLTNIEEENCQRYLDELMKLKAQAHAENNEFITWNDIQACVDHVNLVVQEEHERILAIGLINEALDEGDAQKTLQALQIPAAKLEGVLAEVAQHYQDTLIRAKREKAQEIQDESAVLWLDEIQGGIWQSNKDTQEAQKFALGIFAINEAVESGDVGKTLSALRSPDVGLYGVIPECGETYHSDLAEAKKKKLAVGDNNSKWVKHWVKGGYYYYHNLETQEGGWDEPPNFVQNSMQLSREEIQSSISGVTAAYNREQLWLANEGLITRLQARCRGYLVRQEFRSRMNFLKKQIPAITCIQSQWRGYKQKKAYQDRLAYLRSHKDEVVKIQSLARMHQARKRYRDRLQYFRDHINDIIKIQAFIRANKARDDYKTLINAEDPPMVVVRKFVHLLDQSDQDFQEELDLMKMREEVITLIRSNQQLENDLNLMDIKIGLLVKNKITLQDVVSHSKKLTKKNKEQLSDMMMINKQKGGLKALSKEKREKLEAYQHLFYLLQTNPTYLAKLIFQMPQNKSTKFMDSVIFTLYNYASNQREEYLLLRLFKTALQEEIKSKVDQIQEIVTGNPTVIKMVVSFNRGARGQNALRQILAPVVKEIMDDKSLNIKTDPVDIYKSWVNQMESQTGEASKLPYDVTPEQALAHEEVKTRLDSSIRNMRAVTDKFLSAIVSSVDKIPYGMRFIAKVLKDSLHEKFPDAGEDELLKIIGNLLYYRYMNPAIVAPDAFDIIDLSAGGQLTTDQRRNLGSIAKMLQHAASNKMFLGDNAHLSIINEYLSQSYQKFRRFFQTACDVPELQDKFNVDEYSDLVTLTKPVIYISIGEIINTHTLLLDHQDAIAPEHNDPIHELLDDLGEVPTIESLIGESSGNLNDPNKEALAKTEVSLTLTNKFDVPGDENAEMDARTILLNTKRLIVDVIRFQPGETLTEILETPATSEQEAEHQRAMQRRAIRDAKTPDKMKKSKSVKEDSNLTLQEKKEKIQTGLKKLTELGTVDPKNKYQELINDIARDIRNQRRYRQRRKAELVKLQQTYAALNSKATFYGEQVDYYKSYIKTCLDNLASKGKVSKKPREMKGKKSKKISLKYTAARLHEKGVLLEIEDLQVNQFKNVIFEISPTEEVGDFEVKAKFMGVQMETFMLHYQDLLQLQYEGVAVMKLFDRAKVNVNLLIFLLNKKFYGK
UniProt O15131: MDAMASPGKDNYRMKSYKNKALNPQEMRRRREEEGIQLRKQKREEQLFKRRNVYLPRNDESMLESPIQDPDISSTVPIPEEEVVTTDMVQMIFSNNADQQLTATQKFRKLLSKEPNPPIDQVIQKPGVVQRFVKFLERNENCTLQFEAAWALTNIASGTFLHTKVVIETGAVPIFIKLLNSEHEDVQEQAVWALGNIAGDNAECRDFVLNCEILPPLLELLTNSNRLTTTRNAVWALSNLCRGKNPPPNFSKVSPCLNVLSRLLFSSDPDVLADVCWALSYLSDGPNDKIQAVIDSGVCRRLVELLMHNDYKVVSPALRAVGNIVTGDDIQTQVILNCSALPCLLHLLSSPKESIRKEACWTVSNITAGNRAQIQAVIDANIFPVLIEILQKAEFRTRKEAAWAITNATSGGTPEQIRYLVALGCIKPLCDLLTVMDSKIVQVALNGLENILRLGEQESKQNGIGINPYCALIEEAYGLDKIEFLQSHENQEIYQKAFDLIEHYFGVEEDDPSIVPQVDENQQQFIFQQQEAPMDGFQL
UniProt P10275: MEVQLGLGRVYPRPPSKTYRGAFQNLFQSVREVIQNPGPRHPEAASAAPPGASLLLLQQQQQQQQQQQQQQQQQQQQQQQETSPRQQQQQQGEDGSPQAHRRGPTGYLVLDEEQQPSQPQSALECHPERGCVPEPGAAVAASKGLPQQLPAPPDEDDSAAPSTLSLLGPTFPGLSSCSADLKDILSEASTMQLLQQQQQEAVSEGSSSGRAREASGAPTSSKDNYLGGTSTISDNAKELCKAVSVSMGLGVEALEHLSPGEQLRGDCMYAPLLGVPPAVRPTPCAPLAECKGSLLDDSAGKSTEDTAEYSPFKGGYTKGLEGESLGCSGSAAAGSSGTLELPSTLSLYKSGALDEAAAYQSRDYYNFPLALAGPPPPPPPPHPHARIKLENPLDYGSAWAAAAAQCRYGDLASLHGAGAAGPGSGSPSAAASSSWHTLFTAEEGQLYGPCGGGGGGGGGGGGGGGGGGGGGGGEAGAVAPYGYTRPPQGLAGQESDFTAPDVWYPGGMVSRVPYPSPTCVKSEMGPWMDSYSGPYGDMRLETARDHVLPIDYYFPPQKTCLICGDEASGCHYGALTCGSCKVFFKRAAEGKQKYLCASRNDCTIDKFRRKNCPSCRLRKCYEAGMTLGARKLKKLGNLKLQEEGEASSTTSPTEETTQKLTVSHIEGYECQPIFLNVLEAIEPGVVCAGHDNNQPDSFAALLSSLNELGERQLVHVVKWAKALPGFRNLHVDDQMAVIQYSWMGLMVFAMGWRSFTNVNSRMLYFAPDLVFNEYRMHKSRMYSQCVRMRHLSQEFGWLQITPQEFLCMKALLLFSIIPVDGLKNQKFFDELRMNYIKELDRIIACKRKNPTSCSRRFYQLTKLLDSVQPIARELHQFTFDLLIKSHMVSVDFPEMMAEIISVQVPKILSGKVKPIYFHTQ

Columns and labels:
[1] = target: endogenous INF2 (LNCaP) (human (endogenous in LNCaP)) (UniProt Q27J81); assay: co-IP; endogenous proteins, LNCaP cell lysates, IgG or anti-INF2 antibody; Western blot
FLAG-INF2-CAAX [2] = target: FLAG-INF2-CAAX (UniProt Q27J81); assay: co-IP; 293T cells co-transfected with the two plasmids; cell lysates precipitated with anti-FLAG antibody; Western blot
FLAG-SPOP [3] = target: FLAG-SPOP (UniProt O43791); assay: co-IP; 293T cells transfected with SPOP constructs; anti-FLAG antibody; endogenous KPNA5 by Western blot
SPOP-F125V (S3D Fig) [4] = target: SPOP-F125V (S3D Fig) (UniProt O43791); assay: as above
SPOP-F133L (S3D Fig) [5] = target: SPOP-F133L (S3D Fig) (UniProt O43791); assay: as above
[6] = target: FLAG-SPOP (lentivirus, LNCaP) (UniProt O43791); assay: co-IP; LNCaP cells infected with lentivirus expressing FLAG-SPOP or control, 20 μM MG132 for 8 h before harvesting; anti-FLAG antibody; endogenous partners by Western blot
FLAG-SPOP [7] = target: FLAG-SPOP (UniProt O43791); assay: co-IP; 293T cells co-transfected with the two plasmids; cell lysates precipitated with anti-FLAG antibody; Western blot
SPOP-F125V (S3D Fig) [8] = target: SPOP-F125V (S3D Fig) (UniProt O43791); assay: as above
SPOP-F133L (S3D Fig) [9] = target: SPOP-F133L (S3D Fig) (UniProt O43791); assay: as above
FLAG-INF2-CAAX [10] = target: FLAG-INF2-CAAX (UniProt Q27J81); assay: co-IP; 293T cells transfected with wild-type SPOP and INF2, with co-expressed SPOP mutant (Y87N, F125V or F133L); anti-FLAG antibody; Western blot
FLAG-SPOP [11] = target: FLAG-SPOP (UniProt O43791); assay: co-IP; reciprocal co-IP, 293T cells transfected with FLAG-SPOP and Myc-INF2; Western blot (legend: anti-Myc antibody)

Substance	binding (FLAG-INF2-CAAX [2])	further results
endogenous SPOP (LNCaP) (from UniProt O43791 1-374)	–	binding [1]: binds
Myc-SPOP W131C (from UniProt O43791 1-374)	no binding	–
Myc-SPOP K134N (from UniProt O43791 1-374)	no binding	–
IQGAP1 (endogenous, LNCaP) (from UniProt P46940 1-1657)	–	binding [1]: binds
endogenous KPNA5 (293T) (from UniProt O15131 1-539)	–	binding (FLAG-SPOP [3]): binds; binding (SPOP-F125V (S3D Fig) [4]): binds; binding (SPOP-F133L (S3D Fig) [5]): binds
endogenous INF2 (LNCaP) (from UniProt Q27J81 1-1249)	–	binding [6]: binds
Myc-SPOP Y87N (from UniProt O43791 1-374)	no binding	–
overexpressed KPNA5 (from UniProt O15131 1-539)	–	binding (FLAG-SPOP [7]): binds; binding (SPOP-F125V (S3D Fig) [8]): binds; binding (SPOP-F133L (S3D Fig) [9]): binds
Myc-SPOP (from UniProt O43791 1-374)	binds	binding (FLAG-INF2-CAAX [10]): binds
Myc-INF2 (from UniProt Q27J81 1-1249)	–	binding (FLAG-SPOP [11]): binds
Myc-SPOP F125V (from UniProt O43791 1-374)	no binding	–
androgen receptor (endogenous, LNCaP) (from UniProt P10275 1-920)	–	binding [6]: binds
Myc-SPOP W131G (from UniProt O43791 1-374)	no binding	–

The next lines start with results.

binding (FLAG-INF2-CAAX [2])	Substance	further results
no binding	Myc-SPOP K129E (from UniProt O43791 1-374)	–
no binding	Myc-SPOP F102C (from UniProt O43791 1-374)	–
no binding	Myc-SPOP F133L (from UniProt O43791 1-374)	–
no binding	Myc-SPOP S119N (from UniProt O43791 1-374)	–
no binding	Myc-SPOP F133V (from UniProt O43791 1-374)	–
no binding	Myc-SPOP Y87C (from UniProt O43791 1-374)	–
